From the supplement of paper PMC12355420 come the findings set out here.

Counter-ions that a name gives are not always drawn. Some of the results follow. No stated cut-off is given here; in the data, active = 0.5 or less and inactive = the rest. Repeats are few or missing, and single values can be far off.

What all share (details): 50 µM; 24 h
In experiment [1] the test system is HeLa VPS33A reporter cells. The experiment in a line: relative cell viability (CellMask signal) vs DMSO (fraction of DMSO); higher = less cytotoxic.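 Further: primary screen of an FDA-approved drug library in HeLa reporter cells in 96-well format, CellMask signal normalized to DMSO-treated wells set as 1, under 0.5 deemed highly cytotoxic.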
Experiment [2] has as its system HeLa VPS33A R498W KI + HA-SDC1-FLAG. The experiment in a line: relative GAG core protein HA-SDC1 amount per cell number vs DMSO (fraction of DMSO); higher = more SDC1 (GAG core protein).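 Further: HA-SDC1 level read out by In-Cell Western staining with an anti-HA antibody against the N-terminal tag, screening FDA-approved library drugs.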
The subject of experiment [3] is HeLa VPS33A KO + NLuc-VPS33A R498W. The experiment in a line: relative mutant VPS33A R498W amount (NanoLuc luminescence) vs DMSO (fraction of DMSO); HeLa model of a glycosaminoglycan (GAG) storage disease; KI is knock-in and KO knock-out; SDC1 is syndecan 1; higher = higher mutant VPS33A level.
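Wherever relative mutant VPS33A R498W amount (NanoLuc luminescence) vs DMSO is given: screen of an FDA-approved drug library, NanoLuc luminescence read after lysing the treated cells, taken as a measure of mutant VPS33A protein stability.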

In experiment [1], `CO[C@@H]1[C@@H](OC(N)=O)[C@@H](O)[C@H](Oc2ccc3c(O)c(NC(=O)c4ccc(O)c(CC=C(C)C)c4)c(=O)oc3c2C)OC1(C)C` [Novobiocin Sodium] yielded a relative cell viability of 0.94. In experiment [2], the “relative GAG core protein HA-SDC1 amount per cell number” value is inactive: 0.847. In addition, in experiment [3], the “relative mutant VPS33A R498W amount” value came to 0.751.

For the molecule `CC(C)(C)NC[C@H](O)COc1nsnc1N1CCOCC1` [Timolol Maleate], the relative cell viability in experiment [1] amounted to 1.15. For the same molecule, in experiment [2], the “relative GAG core protein HA-SDC1 amount per cell number” value is inactive: 1.05. In experiment [3], the “relative mutant VPS33A R498W amount” value came out at 1.3.

The molecule `Cc1cc(N2CCN([C@@H]3CN[C@H](C(=O)N4CCSC4)C3)CC2)n(-c2ccccc2)n1` [Teneligliptin hydrobromide] came in with a relative cell viability in experiment [1] of 1.05. Further, the “relative GAG core protein HA-SDC1 amount per cell number” value in experiment [2] was inactive: 0.787. The “relative mutant VPS33A R498W amount” value in experiment [3] was 0.322.

The molecule `CC(C)C[C@H](NC(=O)[C@@H](O)[C@H](N)Cc1ccccc1)C(=O)O` [Bestatin] came in with a relative cell viability in experiment [1] of 1.46. Moreover, in experiment [2], the “relative GAG core protein HA-SDC1 amount per cell number” value was inactive: 0.868. Moreover, the “relative mutant VPS33A R498W amount” value in experiment [3] was 1.03.

For `Nc1ccc(/N=N/c2ccccc2)c(N)n1` [Phenazopyridine HCl], the relative cell viability in experiment [1] turned out to be 0.836. Also, the “relative GAG core protein HA-SDC1 amount per cell number” value in experiment [2] was inactive: 0.715. For the same molecule, the “relative mutant VPS33A R498W amount” value in experiment [3] was found to be 0.437.

`CNC(=O)[C@H](Cc1c[nH]c2ccccc12)NC(=O)[C@@H](CC(=O)NO)CC(C)C` showed a relative cell viability in experiment [1] of 0.7. For the same molecule, the “relative GAG core protein HA-SDC1 amount per cell number” value in experiment [2] was inactive: 0.613. In addition, in experiment [3], the “relative mutant VPS33A R498W amount” value was 0.796.

`C=CCNC(N)=S` [Allylthiourea] registered a relative cell viability in experiment [1] of 0.962. In addition, in experiment [2], the “relative GAG core protein HA-SDC1 amount per cell number” value was inactive: 0.869. In addition, the “relative mutant VPS33A R498W amount” value in experiment [3] is 1.32.

`C[C@](N)(Cc1ccc(O)c(O)c1)C(=O)O` [Methyldopa] yielded a relative cell viability in experiment [1] of 0.937. Moreover, in experiment [2], the “relative GAG core protein HA-SDC1 amount per cell number” value was inactive: 0.968. Besides, the “relative mutant VPS33A R498W amount” value in experiment [3] is 1.37.

For the molecule `CC(C)NCC(O)c1ccc(NS(C)(=O)=O)cc1` (configuration not stated) [Sotalol hydrochloride], the relative cell viability in experiment [1] came out at 0.916. In experiment [2], the “relative GAG core protein HA-SDC1 amount per cell number” value is inactive: 0.793. Further, the “relative mutant VPS33A R498W amount” value in experiment [3] came to 1.28.

Take `CCCC(=O)O[C@]1(C(=O)COC(C)=O)CC[C@H]2[C@@H]3C[C@H](F)C4=CC(=O)C=C[C@]4(C)[C@@]3(F)[C@@H](O)C[C@@]21C` [Difluprednate]: the relative cell viability in experiment [1] worked out at 1.14. The “relative GAG core protein HA-SDC1 amount per cell number” value in experiment [2] was inactive: 0.89. In experiment [3], the “relative mutant VPS33A R498W amount” value was 0.756.

Take `CCC[C@@H]1C[C@@H](C(=O)N[C@@H]([C@H]2O[C@H](SC)[C@H](OP(=O)(O)O)[C@@H](O)[C@H]2O)[C@H](C)Cl)N(C)C1` [Clindamycin Phosphate]: the relative cell viability in experiment [1] is 0.992. In addition, the “relative GAG core protein HA-SDC1 amount per cell number” value in experiment [2] was inactive: 1.58. Further, the “relative mutant VPS33A R498W amount” value in experiment [3] came to 0.999.

For `OC[C@H]1O[C@@H](O[C@@H]2[C@@H](CO)OC(O)(CO)[C@H]2O)[C@H](O)[C@@H](O)[C@H]1O` (mixture of isomers) [Lactulose], the relative cell viability in experiment [1] amounted to 0.903. The “relative GAG core protein HA-SDC1 amount per cell number” value in experiment [2] is inactive: 0.726. In experiment [3], the “relative mutant VPS33A R498W amount” value was determined as 1.28.

Consider `Nc1nc2[nH]cc(CCc3ccc(C(=O)N[C@@H](CCC(=O)O)C(=O)O)cc3)c2c(=O)[nH]1` [Pemetrexed disodium hemipenta hydrate], for which the relative cell viability in experiment [1] came out at 1.08. The “relative GAG core protein HA-SDC1 amount per cell number” value in experiment [2] was inactive: 1.7. Moreover, in experiment [3], the “relative mutant VPS33A R498W amount” value came out at 1.06.

On to `N#C[C@@H]1C[C@@H]2C[C@@H]2N1C(=O)[C@@H](N)C12CC3CC(CC(O)(C3)C1)C2` [Saxagliptin], for which the relative cell viability in experiment [1] came to 1.2. Moreover, the “relative GAG core protein HA-SDC1 amount per cell number” value in experiment [2] was inactive: 1.12. In addition, in experiment [3], the “relative mutant VPS33A R498W amount” value stood at 0.831.

Turning to `CN(C)CC(c1ccc(O)cc1)C1(O)CCCCC1` (configuration not stated) [Desvenlafaxine], the relative cell viability in experiment [1] stood at 1.05. Besides, the “relative GAG core protein HA-SDC1 amount per cell number” value in experiment [2] was inactive: 0.913. Moreover, the “relative mutant VPS33A R498W amount” value in experiment [3] came to 1.32.

`O=c1cc[nH]c(=O)[nH]1` [Uracil] returned a relative cell viability in experiment [1] of 1.06. For the same molecule, in experiment [2], the “relative GAG core protein HA-SDC1 amount per cell number” value was inactive: 0.868. Further, in experiment [3], the “relative mutant VPS33A R498W amount” value came to 2.

As for `CN1CCN(c2nc(C3=C(c4c[nH]c5ccccc45)C(=O)NC3=O)c3ccccc3n2)CC1` [Sotrastaurin (AEB071)], the relative cell viability in experiment [1] was 1.37. Besides, the “relative GAG core protein HA-SDC1 amount per cell number” value in experiment [2] was inactive: 0.783. Moreover, the “relative mutant VPS33A R498W amount” value in experiment [3] amounted to 0.776.

For the molecule `Nc1nc(=O)n([C@@H]2CS[C@H](CO)O2)cc1F` [Emtricitabine], the relative cell viability in experiment [1] was 1.16. For the same molecule, in experiment [2], the “relative GAG core protein HA-SDC1 amount per cell number” value is inactive: 1.08. Moreover, the “relative mutant VPS33A R498W amount” value in experiment [3] was 1.1.

In experiment [1], `C[C@@H]1O[C@@H](OC[C@H]2O[C@@H](Oc3c(-c4ccc(O)c(O)c4)oc4cc(O)cc(O)c4c3=O)[C@H](O)[C@@H](O)[C@@H]2O)[C@H](O)[C@H](O)[C@H]1O` [Rutin] had a relative cell viability of 1.06. Moreover, in experiment [2], the “relative GAG core protein HA-SDC1 amount per cell number” value was inactive: 0.96. Also, the “relative mutant VPS33A R498W amount” value in experiment [3] worked out at 1.12.

As to `CC[C@H](C)[C@H](NC(=O)[C@H](CCC(=O)O)NC(=O)[C@H](CCC(=O)O)NC(=O)[C@H](Cc1ccccc1)NC(=O)[C@H](CC(=O)O)NC(=O)CNC(=O)[C@H](CC(N)=O)NC(=O)CNC(=O)CNC(=O)CNC(=O)CNC(=O)[C@@H]1CCCN1C(=O)[C@H](CCCNC(=N)N)NC(=O)[C@@H]1CCCN1C(=O)[C@H](N)Cc1ccccc1)C(=O)N1CCC[C@H]1C(=O)N[C@@H](CCC(=O)O)C(=O)N[C@@H](CCC(=O)O)C(=O)N[C@@H](Cc1ccc(O)cc1)C(=O)N[C@@H](CC(C)C)C(=O)O` [Bivalirudin Trifluoroacetate], the relative cell viability in experiment [1] was found to be 1.14. Moreover, the “relative GAG core protein HA-SDC1 amount per cell number” value in experiment [2] was inactive: 1.23. Moreover, in experiment [3], the “relative mutant VPS33A R498W amount” value stood at 1.37.

In experiment [1], `CC(C)=CCC[C@](C)(O[C@@H]1O[C@H](CO)[C@@H](O)[C@H](O)[C@H]1O)[C@H]1CC[C@]2(C)[C@@H]1[C@H](O)C[C@@H]1[C@@]3(C)CC[C@H](O)C(C)(C)[C@@H]3[C@@H](O[C@@H]3O[C@H](CO)[C@@H](O)[C@H](O)[C@H]3O)C[C@]12C` [Ginsenoside Rg1] returned a relative cell viability of 0.918. Further, the “relative GAG core protein HA-SDC1 amount per cell number” value in experiment [2] was inactive: 0.715. The “relative mutant VPS33A R498W amount” value in experiment [3] came out at 1.3.

On to `O=C([O-])C(O)[C@H](O)[C@@H](O)[C@H](O)[C@H](O)CO.O=C([O-])C(O)[C@H](O)[C@@H](O)[C@H](O)[C@H](O)CO.[Ca+2]` (some centres not stated) [Calcium Gluceptate], for which the relative cell viability in experiment [1] turned out to be 1.5. In addition, in experiment [2], the “relative GAG core protein HA-SDC1 amount per cell number” value is inactive: 1.48. Also, the “relative mutant VPS33A R498W amount” value in experiment [3] turned out to be 0.861.

Regarding `Cc1cccc(-c2nn3c(c2-c2ccnc4ccc(C(N)=O)cc24)CCC3)n1`, in experiment [1], the relative cell viability was determined as 1.44. Also, the “relative GAG core protein HA-SDC1 amount per cell number” value in experiment [2] is inactive: 1.56. For the same molecule, the “relative mutant VPS33A R498W amount” value in experiment [3] came to 0.712.

Molecule `Cn1c(=O)cc(N2CCC[C@@H](N)C2)n(Cc2ccccc2C#N)c1=O` [Alogliptin Benzoate] gave a relative cell viability in experiment [1] of 1.12. For the same molecule, the “relative GAG core protein HA-SDC1 amount per cell number” value in experiment [2] was inactive: 1.16. Also, in experiment [3], the “relative mutant VPS33A R498W amount” value came out at 1.3.
